Reference: ChEMBL document CHEMBL4888484, “Replenishing the malaria drug discovery pipeline: Screening and hit evaluation of the MMV Hit Generation Library 1 (HGL1) against asexual blood stage Plasmodium falciparum ,using a nano luciferase reporter read-out” (2022)
Hit rate of the full screen: of about 150,000 compounds, about 540 (0.36%) showed an effect of 50% or more. Some of the results follow.

What follows are compounds tested on Plasmodium falciparum (assay: Primary screen in NF54 nanoGlo assay, in single point, at 2uM, 72h; a lower Z score goes with more inhibition). Conditions: timepoint 72 hour.
Format: functional, Erythrocyte
For CCN(CC)c1ccc(NC(=O)[C@H](C)Oc2ccc(=O)n(-c3ccc(C)c(C)c3)n2)c(C)c1, the “% Inhibition” value was -2% and the Z score was 0.39. For Cc1c(C(=O)NCc2ccnc(-n3ccnc3C)c2)oc2c1C(=O)CC(C)(C)C2, the “% Inhibition” value was -1% and the Z score was 0.19. With CCCc1cc([C@@H]2CCCN2Cc2c[nH]nc2-c2ccc(OC)c(OC)c2)no1 the “% Inhibition” value was -10% and the Z score was 1.35. With CCN1CC[C@@]2(CCC1=O)CN(C/C=C/c1ccc(OC)cc1)CCN2C the “% Inhibition” value was 5% and the Z score was -0.97. For Cc1nc(C)c(Cc2cccc(C(F)(F)F)c2)c(N2CCN(C(=O)c3ccc(Cl)c(Cl)c3)CC2)n1, the “% Inhibition” value was -10% and the Z score was 1.06. Cc1ccc(OC[C@H]2CN3CCOB(OCC3)O2)cc1 was tested, and the “% Inhibition” value was -4% and the Z score was 0.52. CC(=O)c1ccc(NC(=O)CNc2ccc([C@@H](C#N)c3ccccc3)c(Cl)c2)cc1 was tested, and the “% Inhibition” value was 14% and the Z score was -1.75. With O=C(O)CCCN(Cc1cccc(Cl)c1)Cc1cnc2n1CCC2 the “% Inhibition” value was 9% and the Z score was -1.22. In the case of O=C(O)c1ccccc1-c1c(-c2ccccc2)ncn1C[C@H]1COCCO1, the “% Inhibition” value is reported as 3% and the Z score is reported as -0.58. In the case of CC1CC(CNC(=O)C(C)n2ccc3ccccc3c2=O)CC(C)O1 (stereo unspecified), the “% Inhibition” value is reported as -14% and the Z score is reported as 3.01. With CCc1cccc(C)c1NC(=O)C(CC)CC the “% Inhibition” value was -11% and the Z score was 2.1. CC(=O)Nc1cccc(C(=O)N(c2ccc(C)cc2)C2(C(=O)Nc3c(C)cccc3C)CCCCC2)c1 was tested, and the “% Inhibition” value was -22% and the Z score was 2.91. C[C@H](NC(=O)c1c[nH]nc1-c1ccccc1)c1ccccn1 was tested, and the “% Inhibition” value was 2% and the Z score was -0.27. Cc1nn(C)cc1C(=O)N1CCC[C@@]2(CCC(=O)N(Cc3cccnc3)C2)C1 was tested, and the “% Inhibition” value was 12% and the Z score was -1.11. In the case of C=C(C)CNC(N)=NCc1cc(F)ccc1Br, the “% Inhibition” value is reported as 2% and the Z score is reported as -0.22. Cc1cc(S(=O)(=O)N(CCO)CCO)sc1C was tested, and the “% Inhibition” value was -14% and the Z score was 1.38. Cc1nn(C)c(C)c1CC(=O)NC1(c2ccccc2F)COC1 was tested, and the “% Inhibition” value was -17% and the Z score was 1.68. For Cn1nccc1C1CC2CCC(C1)N2S(=O)(=O)C1CC1 (stereo unspecified), the “% Inhibition” value was -3% and the Z score was 0.29. In the case of CC(C)C1(CNC(=O)C[C@H](c2nccn2C)C(F)(F)F)CC1, the “% Inhibition” value is reported as 3% and the Z score is reported as -0.37. CN(Cc1ccc2c(c1)OCCO2)c1ncccc1C(N)=O was tested, and the “% Inhibition” value was -2% and the Z score was 0.35. For COc1ccc(-c2cnc(N)nc2)c(-n2nc(C)cc2C)c1, the “% Inhibition” value was -2% and the Z score was 0.2. For CN(Cc1cc(C#N)n(C)c1)C[C@H]1CCCO1, the “% Inhibition” value was 0% and the Z score was 0.06. For CCCCN(C)C(=O)c1cc(NS(=O)(=O)c2ccc(F)cc2)ccc1N1CCNCC1, the “% Inhibition” value was -17% and the Z score was 2.01. CN(c1ccccc1)c1cc(C(=O)O)ncn1 was tested, and the “% Inhibition” value was -1% and the Z score was 0.13. With COc1ccc(CCNC(=O)Cc2ccc(N(Cc3ccccc3C)C(=O)c3cccs3)cc2)cc1 the “% Inhibition” value was -2% and the Z score was 0.29. For CNC(=O)[C@@H]1CCCCN1Cc1cc2cc(F)ccc2o1, the “% Inhibition” value was 3% and the Z score was -0.43. With FC(F)(F)c1cccc(Nc2c(-c3ccc(-c4cccc(C(F)(F)F)c4)o3)nc3ccc(Cl)cn23)c1 the “% Inhibition” value was -3% and the Z score was 0.41. For CC(C)c1nc(CN2C[C@H]3CN(C4CCCCC4)C[C@@]3(C(=O)O)C2)co1, the “% Inhibition” value was -5% and the Z score was 0.7. With Cc1ccc(CCC(=O)N2CC(N3CCc4ccccc4C3)C2)cc1F the “% Inhibition” value was 2% and the Z score was -0.32. Cn1cnc2cc(-c3noc(CNS(=O)(=O)c4ccccc4)n3)ccc21 was tested, and the “% Inhibition” value was 2% and the Z score was -0.28. In the case of C[C@H]1CCCCN1CCN(C)Cc1cncnc1, the “% Inhibition” value is reported as -3% and the Z score is reported as 0.51. In the case of O=C1CCC(C(=O)NC(c2ccc(Cl)cc2)c2ccsc2)CN1 (stereo unspecified), the “% Inhibition” value is reported as -5% and the Z score is reported as 0.47. For O=C(NCc1ccccn1)c1ccc(N2CCCN(Cc3ccccc3)C2=O)cc1, the “% Inhibition” value was 3% and the Z score was -0.49. For Cc1nc(-c2cncc(Cl)c2)n(CC(C)(C)O)n1, the “% Inhibition” value was -1% and the Z score was 0.12. CS(=O)(=O)CCN1C(=O)[C@@H](c2ccccc2)N(Cc2ccccc2)C1=O was tested, and the “% Inhibition” value was -11% and the Z score was 1.75. For CC1CCN(S(=O)(=O)NC2CCCC2)CC1, the “% Inhibition” value was 28% and the Z score was -3.19. For c1ccc(CNc2nc(C3CCCC3)nc3c2CCOCC3)cc1, the “% Inhibition” value was -10% and the Z score was 0.94. CCN1CCN(c2nc(S(=O)(=O)c3ccc(C)cc3)c(Cl)s2)CC1 was tested, and the “% Inhibition” value was -3% and the Z score was 0.42. For CCc1ccc(S(=O)(=O)N2CC(=O)N3CCc4ccccc4[C@@H]3C2)cc1, the “% Inhibition” value was -6% and the Z score was 0.87. In the case of CC1(c2cc(F)ccc2F)NC(=O)N(CC2CCCCO2)C1=O (stereo unspecified), the “% Inhibition” value is reported as -11% and the Z score is reported as 1.04. N#C[C@@H](C(=O)c1cnn2ccccc12)c1nc(-c2ccccc2)cs1 was tested, and the “% Inhibition” value was 13% and the Z score was -1.12. For O=C(NC[C@H]1CCCO1)c1cn2c3c(cc(Br)cc3c1=O)CC2, the “% Inhibition” value was 17% and the Z score was -2.13. In the case of C[C@H](O)CCNC(=O)Nc1cc(C#N)c(Br)cn1, the “% Inhibition” value is reported as -3% and the Z score is reported as 0.41. Cc1nc2ccccc2c(N2CC[C@H](C(=O)N3CCCC3)C2)c1C was tested, and the “% Inhibition” value was -10% and the Z score was 1.88. COCCn1cncc1CNC(=O)N1CCCCC[C@H]1c1ccco1 was tested, and the “% Inhibition” value was -4% and the Z score was 0.56. For Cc1c(NC(=O)c2ccccc2-c2ccccc2)ccc(N2CCCC2=O)c1NC(=O)c1ccccc1-c1ccccc1, the “% Inhibition” value was 37% and the Z score was -4.97. For O=C1NCCCCCCN(C(=O)Nc2ccccc2)[C@H]2CCCC[C@@H]12, the “% Inhibition” value was -7% and the Z score was 0.91. In the case of Cc1cc(=O)c(-c2nc(-c3cccnn3)no2)c[nH]1, the “% Inhibition” value is reported as -2% and the Z score is reported as 0.47. With CC(CC(O)c1ccco1)NS(=O)(=O)N(C)C1CCOCC1 (stereo unspecified) the “% Inhibition” value was -8% and the Z score was 0.93. With CC1(C)CN(C(=O)c2cc3ncccc3o2)[C@H]2COC[C@@H]2O1 the “% Inhibition” value was -2% and the Z score was 0.34. In the case of C[C@H]1C(=O)NCCN1C(=O)c1ccc(Cc2ccccc2)cc1, the “% Inhibition” value is reported as -8% and the Z score is reported as 1.32. In the case of N#CC1CN(c2ccncc2Cl)CC12C(=O)Nc1ccccc12 (stereo unspecified), the “% Inhibition” value is reported as 0% and the Z score is reported as 0.01. O=C(NCCn1ccn2nccc12)C1CCCC1 was tested, and the “% Inhibition” value was -10% and the Z score was 1.27.
